Read counts are not given, so values of variants with three or more changes are uncertain.

Our source for the self-cleavage values is the RNAGym collection of RNA variant scans (doi:10.7554/elife.90254).

B1: LINE1-mini (parent)
chain: GGCAGAGCUCAACACAGCGUGGCAAAGUGGCUGUGGCUAGACUGCC

The variants in this data set derive from B1. Nature of the data set: self-cleavage, relative activity (ratio to wild type); higher = more cleavage; in vitro, sequencing; the parent is a self-cleaving ribozyme.
Take G19C G21A U38A: the self-cleavage came to 0.19.

In the case of G19U G21U C46A, the self-cleavage amounted to 0.12.

On to U20G G33U U34A, for which the self-cleavage amounted to 0.08.

As to G21A G22A C23A U43G, the self-cleavage came to 0.

For G21A U34C G35U C37A, the self-cleavage worked out at 0.23.

As to G19C G29U C31U, the self-cleavage was found to be 0.1.

Regarding G19U G30U G40A, the self-cleavage turned out to be 0.04.

For the variant G19A U28C C31G, the self-cleavage was 0.06.

On to G19A G21C A25U G29C, for which the self-cleavage turned out to be 0.41.

As for U20A G21U A25C U38G, the self-cleavage was determined as 0.

As for G19U G27U U28C C37U C42A, the self-cleavage came to 0.04.

Consider U20A G30A U38A C46G, for which the self-cleavage turned out to be 0.23.

Take U20G A25G G29A U34A: the self-cleavage stood at 0.04.

In the case of G19A G40U C42A, the self-cleavage was determined as 0.01.

Turning to U20G U28G G40U, the self-cleavage is 0.04.

On to U20C A26G G30C A39C, for which the self-cleavage was determined as 0.17.

U20A A25G C46A: the self-cleavage amounted to 0.05.

Turning to G19C U20A G29A G36U U38A G40A C42U, the self-cleavage stood at 0.11.

Take U20A C42U G44U C46U: the self-cleavage turned out to be 0.

On to G19A G22U A26C C37U, for which the self-cleavage is 0.01.

Consider G19A G22C A26G G33A, for which the self-cleavage was 0.05.

Consider G19U G30A C31G, for which the self-cleavage was determined as 0.14.

As for U20G G40A C42G, the self-cleavage turned out to be 0.03.

Take G19A C31U U34G C42U: the self-cleavage was determined as 0.03.

On to G19A A26U G29C, for which the self-cleavage turned out to be 0.18.

Regarding G19U A24C G29U G40C, the self-cleavage came to 0.08.

For the variant G19U G21C A26C C45A, the self-cleavage is 0.06.

On to G19U C31U C42A G44U, for which the self-cleavage was found to be 0.02.

Take G21A G29U C42G: the self-cleavage was found to be 0.18.

Regarding G19A G29A C46U, the self-cleavage stood at 2.43.

U20C C37G A39C: the self-cleavage was determined as 0.02.

On to U20G G35A C37G, for which the self-cleavage worked out at 0.01.

In the case of G21A U28G C37U, the self-cleavage turned out to be 0.03.

Take U20G G22A C42A: the self-cleavage was 0.05.

As to G19U G30C U32G, the self-cleavage turned out to be 0.17.

As for G19C A25C G29C, the self-cleavage is 0.18.

For the variant U20C U43G C45G, the self-cleavage came to 0.

U20C G29A U38A: the self-cleavage was found to be 0.13.

Consider G21A G33U C37U, for which the self-cleavage was determined as 0.05.

For the variant G19C C23G A26G G40U, the self-cleavage was found to be 0.01.

Consider G21A C23U A24C A41C, for which the self-cleavage came to 0.07.

For U20C G33A A39C, the self-cleavage was 0.01.

As for U20G G33U C37U C45G, the self-cleavage is 0.02.

With G19U A25U U28A, the self-cleavage amounted to 0.37.

As to U20C C23A G29C C37U U38C, the self-cleavage amounted to 0.

With G19A G22U U43C, the self-cleavage was found to be 0.1.

On to G19A G22U G27U, for which the self-cleavage was 0.45.

Take G19A G21C G36U G40U A41U U43A: the self-cleavage came out at 0.15.

For the variant U20A G29U G30C C31G A41C, the self-cleavage came to 0.07.

As for U20C A26U G29A U32A U38C, the self-cleavage was 0.08.

Consider G19C G29U G33A G44C, for which the self-cleavage was found to be 0.07.

In the case of G19U A26C U28G, the self-cleavage worked out at 0.33.

G19A G40U C46A: the self-cleavage stood at 0.07.

For the variant G19U U20A G30U C46U, the self-cleavage is 0.14.

Take G19U U28C G40A: the self-cleavage is 0.1.

U20C G33C G36A: the self-cleavage was determined as 0.02.

As for U20G A25U U28G, the self-cleavage came to 0.45.

As for U20A G27U C45G, the self-cleavage is 0.89.

In the case of U20C G27C G40U, the self-cleavage amounted to 0.04.

On to G21C C23A A25G C42U, for which the self-cleavage was found to be 0.12.

On to G19A U20G C37U, for which the self-cleavage stood at 0.04.

U20A U32A U38A: the self-cleavage came to 0.06.

With G19C G27C G30C, the self-cleavage turned out to be 0.46.

For the variant G19U A39G C46U, the self-cleavage was 0.04.

U20G G35A A41G: the self-cleavage is 0.06.

U20A G33C G36A G44A: the self-cleavage stood at 0.03.

Turning to G19U U20G A26C G35C G44C, the self-cleavage was 0.09.

Regarding G19C A39U G44A, the self-cleavage amounted to 0.06.

For the variant U20C G29C U38G, the self-cleavage worked out at 0.01.

U20C G29C U38A: the self-cleavage is 0.05.

In the case of G19A U32C G35C A41C C46U, the self-cleavage came out at 0.01.

In the case of G19A G21C A39C, the self-cleavage is 0.03.

U20C U28A G30A: the self-cleavage was determined as 1.02.

For the variant G19U A26G U38G A39U, the self-cleavage was determined as 0.01.

As to G19A A26U G30U G35A C37A, the self-cleavage came to 0.03.

Take G19C C42U G44U: the self-cleavage amounted to 0.06.

G19C C42U G44A: the self-cleavage was found to be 0.01.

In the case of U20G C23U A26U, the self-cleavage worked out at 0.64.

In the case of U20C U28G C37G C42G, the self-cleavage came out at 0.01.

As to U20C A39C G40U, the self-cleavage amounted to 0.07.

Regarding G19C U38A A41U, the self-cleavage was determined as 0.03.

In the case of G19C G27C G30A G36U, the self-cleavage was found to be 0.05.

As for G19A G21U G30U C31A, the self-cleavage was found to be 0.27.

Consider U20A G40U A41C, for which the self-cleavage was determined as 0.29.

Regarding G19U G29C G35U C37A, the self-cleavage was 0.09.

For U20A G29A A41C, the self-cleavage worked out at 0.08.

With G21C A24C G44U, the self-cleavage came to 0.11.

Consider G21A U32G G33U, for which the self-cleavage amounted to 0.06.

On to G19A U20C G35U U38G, for which the self-cleavage was found to be 0.01.

For U20C G21C G40A C46U, the self-cleavage was found to be 0.05.

Regarding G19A U28A G30A C45G, the self-cleavage came to 0.07.

Consider G19A A26U U28G, for which the self-cleavage is 2.15.

As for U20C G27C C31A, the self-cleavage amounted to 0.08.

Regarding U20C G33U G36C, the self-cleavage was determined as 0.01.

As for U20G C23U A25C U34A G36A, the self-cleavage came to 0.03.

Regarding G19A G30A A39C, the self-cleavage came to 0.08.

Take G19U C23A G29C G35C C37A U38A: the self-cleavage was 0.02.

As for G19U A25C C45U, the self-cleavage is 0.24.

Turning to G19U C23U U38C, the self-cleavage amounted to 0.67.

For G19U G27C U38A, the self-cleavage came to 0.31.

Turning to U20G G22C G33A C46G, the self-cleavage is 0.09.

In the case of G19U U20G G30A C31G A41U, the self-cleavage is 0.04.

For U20A A25G C37U, the self-cleavage is 0.

For the variant G21A G22A C31G G36C, the self-cleavage stood at 0.04.

As for G19C U20A U32C C37A G40A C45U, the self-cleavage worked out at 0.15.

As to G19A C23U G36C, the self-cleavage was found to be 0.17.

For G19A U34A G44C, the self-cleavage was determined as 0.06.

For the variant U20C G21C A24C U28C G36A, the self-cleavage came out at 0.08.

With G19U G29C G36A C42U, the self-cleavage is 0.08.

As for G21A A26U G30U G33U, the self-cleavage is 0.37.

As to U20G C42U C46U, the self-cleavage was 0.03.

Consider G19C C42U C46U, for which the self-cleavage was determined as 0.06.

For U20G C31U C46G, the self-cleavage came to 0.

On to G19C A39G C45A, for which the self-cleavage amounted to 0.02.

In the case of G19U U20A A41C, the self-cleavage was determined as 0.02.

In the case of G21A C23U A25U A26G, the self-cleavage is 0.59.

Regarding U20G G22A G40A, the self-cleavage was 0.1.

Take G19U U28A C45A: the self-cleavage came to 0.9.

For U20C G29C C46U, the self-cleavage is 0.14.

Regarding G19A G29U U34G C42G C46U, the self-cleavage came to 0.02.

Turning to U20A A25G G29A U34C, the self-cleavage came to 0.09.

As for U20C G30A G40U, the self-cleavage amounted to 0.02.

Regarding U20G G22U U28A, the self-cleavage stood at 0.19.

Turning to U20G G22A G30A G33C G36C, the self-cleavage worked out at 0.03.

On to G21C A26C G36A, for which the self-cleavage was 0.23.

Take U20G C23G A41U: the self-cleavage was 1.03.

Regarding U20C C31U U32A, the self-cleavage is 0.08.

G21A A25C G27C U28A: the self-cleavage was 0.4.

In the case of G21A G22A C31U, the self-cleavage was found to be 0.29.

As for G19U A26C A41U, the self-cleavage was 0.49.

As to U20C C31A U32A G40U C46G, the self-cleavage was found to be 0.01.

As for G19U G22U C23A, the self-cleavage stood at 0.34.

In the case of U20G U28G C31U U38G, the self-cleavage came out at 0.01.

In the case of G19C A26C C42U, the self-cleavage was determined as 0.38.

With U20G U28G A41C, the self-cleavage was 0.02.

G19U G29U C45A: the self-cleavage is 0.49.

In the case of U20G G21C U34A, the self-cleavage stood at 0.08.

In the case of G19A G21C U32C A41U, the self-cleavage was determined as 0.21.

Take G19C G21C G29U: the self-cleavage amounted to 0.3.

As for G19A G22U A26U U38C A41G, the self-cleavage was 0.48.

With U20A G36U A41U C46G, the self-cleavage amounted to 0.15.

Turning to G19A G22U G35U, the self-cleavage turned out to be 0.1.

In the case of G19U A24U U28C G33C U38A, the self-cleavage is 0.19.

Regarding G19A G29A C31G, the self-cleavage came to 0.17.

For U20C G27U G36U C37G, the self-cleavage was found to be 0.02.

As to G21A U32C G33C, the self-cleavage came out at 0.03.

Turning to U20A C31U C42U, the self-cleavage came to 0.02.

In the case of G21A G29U C37U A39G, the self-cleavage amounted to 0.

Take G19A G21U C23A U43A: the self-cleavage is 0.01.

As for G19U G21U C42G C45A, the self-cleavage amounted to 0.06.

Regarding G19C C31A U34C G36C, the self-cleavage was found to be 0.04.

Take G21A A25G G33A: the self-cleavage came to 0.06.

Consider G19A C23A C31U, for which the self-cleavage worked out at 0.18.

Consider U20A G29U A39G, for which the self-cleavage worked out at 0.06.

For U20G C31U G33A, the self-cleavage was found to be 0.04.

Take G19A G29A U38G: the self-cleavage worked out at 0.02.

For G19A G21C G27A G29U G40U, the self-cleavage came to 0.01.

As for U20A G22U A26U, the self-cleavage amounted to 0.55.

U20A A25U C31U C37A: the self-cleavage was 0.1.

In the case of U20C G22U C23A G30U U43A, the self-cleavage is 0.09.

For G21A G30C G33U, the self-cleavage came to 0.06.

G21A U28G U32C G44A: the self-cleavage turned out to be 0.07.

Turning to G21A G40C C45A, the self-cleavage came to 0.1.

For G19U G21C A24G G33A U34G C42G C45A, the self-cleavage came out at 0.06.

In the case of G19U G22U U28A C37G, the self-cleavage turned out to be 0.01.

In the case of G19A G29U G33C, the self-cleavage is 0.12.

As to G19C A41G C45U, the self-cleavage amounted to 0.04.
